± gives the standard deviation of the averaged measurements. The list shows a part of the results.

In this experiment the test system is PfAP2-G AP2 domain (GST-tagged). Kind of experiment: gcPBM binding intensity (ln(normalized median fluorescence intensity)); higher = stronger DNA binding. The method, boiled down:
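Each value is the highest Masliner-normalised natural-log median intensity across replicate spots of either orientation of a probe. The probes were primer-extended double-stranded 36-bp intergenic genomic sequences on an Agilent 4 × 180k array, alongside negative controls, exposed for 1 h to GST-tagged P. falciparum DNA-binding domains expressed in E. coli. Bound protein was picked up with Alexa488 anti-GST antibody and scanned at 488 nm.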
For “AAACCGTGGGAGCACACACACACACCCACCCATATA [CACACA_site332]”, the “gcPBM binding intensity (ln)” value is 10.4 ± 0.4.
As to “TTCTGTCAATATGCTTGTACGAAATATTTCGTAATT [XGTACX_site3182]”, the “gcPBM binding intensity (ln)” value came out at 11 ± 0.58.
Take “ATATATATAAAATATGGTACAGAAAAAGTCTTGTTT [XGTACX_site8868]”: the “gcPBM binding intensity (ln)” value amounted to 10.9 ± 0.45.
As for “ATAAATAAATACTAGGCACACACACCGATATATATA [CACACA_site8649]”, the figure is 10.1 ± 0.17; as for “AAAATAAACCCAGACACACTCATTAAAAAATATCAT [CACACA_site5903]”, 9.95 ± 0.099.
Turning to “TATTAATCCTTTTGCTTGGAAACATTCAAAAGGAAG [CACACA_negctrl_site1129]”, the “gcPBM binding intensity (ln)” value was found to be 9.82 ± 0.099.
As for “TATATTATATTTTTATGTACTTATTTATTTTGTTTC [XGTACX_site6145]”, the figure is 11.3 ± 0.67; as for “AACATATATTTTTAATGTACAAGGTTGTAAAGAACT [XGTACX_site1405]”, 10.8 ± 0.31; as for “ATATTAAAATTTTAATGTACATGCGTATGTAGGAAT [XGTACX_site1673]”, 11 ± 0.53.
For “AAAGAATAATTAAATACACACATATTGCAGTAAAAA [CACACA_site7201]” the value was 10.04 ± 0.057; for TGTAAAATATAAAAAGTGCATTTCTTTTAATATGAT, 9.875 ± 0.007.
As for “ATGTATATATTCAATTGTACATGTTATATTTACACA [XGTACX_site1125]”, the figure is 11.1 ± 0.64; as for “ATTGTATTAAAATGCACACATATCAAGAGGAATTTT [CACACA_site283]”, 10.1 ± 0.14.
In the case of “TATATTAAAATTTACTGTACTTTTTTTATTTTAAAA [XGTACX_site4077]”, the “gcPBM binding intensity (ln)” value was 11.6 ± 1.1.
As for “TTAAATAATGCCACCAGTACCCACTGAAAGAAAAAA [XGTACX_site5013]”, the figure is 10.9 ± 0.59.
For “CAATTGATATTGAAATGTACTTTTTAGATGAACCTT [XGTACX_site2354]”, the “gcPBM binding intensity (ln)” value came to 11.3 ± 0.67.
Regarding “AAAGATATAAATTACTGTACTAATGAAATTGGTAAA [XGTACX_site3582]”, the “gcPBM binding intensity (ln)” value came to 11.1 ± 0.73.
As for “ACCTTAAATAATACATGTACAAAAAAATTTATAATA [XGTACX_site1043]”, the figure is 11 ± 0.49; as for “TAGGGATTATACCACACACACATACACATAAATATA [CACACA_site3178]”, 10.2 ± 0.27; as for “AAGAATAAGGAAAAATGTACAGAATGCACATATGAA [XGTACX_site4705]”, 10.8 ± 0.5.
As for “AATTTTATTACTTTTACACACCTATATATCATTCAT [CACACA_site7525]”, the “gcPBM binding intensity (ln)” value is 10 ± 0.028.
As for “AAAAAAAATACAAAAAGTACAAAAAATACAAAAAAA [XGTACX_site8844]”, the figure is 11.1 ± 0.66; as for “ATGTATATATATATATGTACATATTTTTTATATGTA [XGTACX_site441]”, 11.2 ± 0.81.
For “TTCTTTTTTTAAAGAAGTACTATATTTTAAATTATA [XGTACX_site5059]” the value was 11.2 ± 0.93.
For “TTTAAAATAAATTAATAGAACAAAAATAAAATGATT [GTGCAC_negctrl_site375]” the value was 9.89.
“AATAATAAAAAAAGTGCACACACATAATATATATAT [CACACA_site9100]”: the “gcPBM binding intensity (ln)” value amounted to 10.7 ± 0.52.
For the sequence “TATAAAAAAATAAAAGGAATATACTTGCAAAGGGTA [CACACA_negctrl_site1438]”, the “gcPBM binding intensity (ln)” value was found to be 10.14 ± 0.014.
For the sequence “TTTCAAATGATTAAGTGTACATGTTTGCTTGCTCTT [XGTACX_site4697]”, the “gcPBM binding intensity (ln)” value was found to be 11.3 ± 0.82.
As for “TTTTTTTTTGTTATGTTGCACTTTGCCATATTATTA [GTGCAC_site9844]”, the figure is 10.1 ± 0.15.
As to “AATATAAAAAATAATACACACACATGGCGACAAAAT [CACACA_site8765]”, the “gcPBM binding intensity (ln)” value was 10.3 ± 0.16.
For “ATGTAAGTAATTATCTGTACACATAATATATATATA [XGTACX_site2618]” the value was 11.5 ± 1; for “CACATAAATAATTAAACACACATTGTTCTAGACAAT [CACACA_site2378]”, 9.95 ± 0.16; for “TTTGAGTTACTATTCACACAAAATGGATAAATTAAT [CACACA_site5626]”, 10.1 ± 0.13.
For “TACATATTACTATTCAGTACATATTTTTTTTTCATT [XGTACX_site7468]” the value was 10.9 ± 0.67; for “TATATAGGTATATATACACACAACGGTTATAAATAT [CACACA_site4759]”, 10.03 ± 0.035.
Turning to “TATAAAGACACGAAAACACACATATGTAAATATATA [CACACA_site8056]”, the “gcPBM binding intensity (ln)” value came out at 10.1 ± 0.12.
With AGGATAAAAGTTATGGTGCATTAACCTATTTAAATA, the “gcPBM binding intensity (ln)” value turned out to be 10.1 ± 0.14.
In the case of “TAGTTTTGAAAACAAACACACAAAAAAAAAAAAAAA [CACACA_site1692]”, the “gcPBM binding intensity (ln)” value was 9.88 ± 0.52.
For “ATACGATTGCAGTCAAAAAGGAAAATATAAAAAAAG [XGTACX_negctrl_site124]” the value was 10.2 ± 0.25; for “AATATTTATAAATTTACACACACACCCGTGAACATA [CACACA_site1910]”, 10.3 ± 0.11.
As for “TTATCATTTTAAATCACACACATATATAAATATGTA [CACACA_site7359]”, the figure is 9.735 ± 0.035; as for “TCCTCATTTTATCATACACACTTGTTTATATGTGTG [CACACA_site6548]”, 10.12 ± 0.064.
Consider “TATATATATATAATTTGTACACACAAATATGCATAT [XGTACX_site7297]”, for which the “gcPBM binding intensity (ln)” value is 11.1 ± 0.57.
For “ATATATAATAATTGTAGTACAATTAATAAATAAAAT [XGTACX_site3840]” the value was 11.5 ± 0.92.
As for “ATAAAATAAAAACATGCACACTTTATTTTTTTTAAG [CACACA_site5545]”, the figure is 10.03 ± 0.021; as for “AAAGAAGGGGGGGGAAAAAAAAATAAAAGAGGAAAA [XGTACX_negctrl_site92]”, 11 ± 0.77.
Regarding “ATATATATGTATGTATATATATATATATATGTTTGA [CACACA_negctrl_site107]”, the “gcPBM binding intensity (ln)” value turned out to be 9.63.
As for “TTTTTTTTTCTGTATACACACAAAATTTATTTTTTA [CACACA_site2873]”, the figure is 10.07 ± 0.064; as for “TTAATAACGTAATGTAAATGTTTCATACCCTTTTTT [CACACA_negctrl_site988]”, 9.955 ± 0.021.
As for “TGGGGTATTAAAAAAACACACAAAAAAAATATAAAG [CACACA_site1915]”, the figure is 10.3 ± 0.36; as for “AAAATGTATATTGGCGCATGTAAACAAATACTATAC [TGCATGCA_site385]”, 10.08 ± 0.014.
For “TCAAAATGTGACATAAAAGAAAAAAAAAAAAAAAAA [CACACA_negctrl_site1092]”, the “gcPBM binding intensity (ln)” value came out at 9.78 ± 0.42.
As for “GATAATAATAAGTGTACACATATATTTAGAAGAGTA [CACACA_site4245]”, the figure is 11.5 ± 0.85; as for “TGATATTATAGATATACACACATGTATGTATTTATA [CACACA_site6758]”, 9.98 ± 0.16; as for “ATACTAACATTTTTTTGTACATATAACTATAAAATA [XGTACX_site1033]”, 10.9 ± 0.49.
As for “AAGGTAAACGGACACACACACATACAAAAAAAAAAA [CACACA_site5961]”, the figure is 11.1 ± 0.82; as for “AAATTTAGTAAAAAATGTACGTAAAATGTAAAATAT [XGTACX_site1314]”, 11.5 ± 0.73; as for “TATATATTATATAAATAAATAAATATATATATTTAT [TGCATGCA_negctrl_site270]”, 9.585 ± 0.049.
For “AATGATTTTGATTAACGTACGTACAAATATATATAT [XGTACX_site6604]” the value was 11.5 ± 0.82; for “TATTTTACGACATACCAAAAAAAAAAAAAAAAAATA [CACACA_negctrl_site1254]”, 10 ± 0.38; for “AAAAAAAAAAGACACACACACATAGACCTCCAATAG [CACACA_site7646]”, 10.5 ± 0.11.
As to “TAAATCCGCAGGCACACACACATATTAATAAAAAAA [CACACA_site3991]”, the “gcPBM binding intensity (ln)” value came to 10.2 ± 0.38.
As for “AATGTTAAACTATGATGTACGGTTAAAAATATAATT [XGTACX_site893]”, the figure is 10.7 ± 0.42; as for “AGACCTATGATATATACACACATATAAATAAATATA [CACACA_site6725]”, 9.945 ± 0.035; as for “TTATTAAATATAAATATGTATCTTTTATGTTATATT [CACACA_negctrl_site306]”, 9.61 ± 0.085.
As for TTTTTTAAATTTAAAGTGCATTATTATATATTTGTA, the figure is 10 ± 0.18.
For “AAAAAAGAAATAAGGATACACACTATTGATAAAAGT [CACACA_site272]” the value was 10.12 ± 0.064; for “CCAGTGTGCACCTTGCGTACATATTAAATTAATTAA [XGTACX_site3729]”, 11.5 ± 0.96.
Turning to “TTTATTTTTTGAAACACACACAAAAAAAATGATACA [CACACA_site1881]”, the “gcPBM binding intensity (ln)” value was 10.3 ± 0.4.
For “TTCTTTTAAAAATATATTTTAAGAAAATTTAATTTA [GTGCAC_negctrl_site237]” the value was 9.545 ± 0.064; for “GGATAAGAAAAGAAGTGTACATATATATATATATAT [XGTACX_site8290]”, 11.2 ± 0.68.
“TATCATGGTTCGGATTGTACATATATGAATTTTTTT [XGTACX_site7478]”: the “gcPBM binding intensity (ln)” value amounted to 10.8 ± 0.45.
Turning to CAAAAAAAAAAACGGGTGCTAAATTTTATTTTTTAT, the “gcPBM binding intensity (ln)” value amounted to 10.05 ± 0.028.
For “AAAAAAAAAATATATATATATATATATATATATATA [GTGCAC_negctrl_site467]” the value was 9.71 ± 0.71; for “ATAAAGCACACCGACACACACATATATATATATATA [CACACA_site1047]”, 10.3 ± 0.28.
As for “AAAAAAAAAAAAATTACACACATACCTATAAGAATA [CACACA_site7097]”, the figure is 9.885 ± 0.078; as for “TTTTCTTTTTTCTTTTTAACTCTTACATAATAGGTG [CACACA_negctrl_site642]”, 10.3 ± 0.2; as for “AATATATGTTAAAATGGTACACAATTATTATATATT [XGTACX_site6407]”, 11 ± 0.67.
For the sequence “AAAAAAAAAAAAAAGAGTACTTTTTTCACATTCATC [XGTACX_site8795]”, the “gcPBM binding intensity (ln)” value was found to be 11.2 ± 0.6.
As for “TAAAATGAATAAAATTGTACTTAATAATATTTTAAA [XGTACX_site5532]”, the “gcPBM binding intensity (ln)” value worked out at 10.9 ± 0.74.
As to “AAGGAAAACAGTAGGTGTACCAAACGTCCTAGGAAC [XGTACX_site3659]”, the “gcPBM binding intensity (ln)” value was determined as 11.2 ± 0.69.
As for “TATATTTATATCATCACACATTTTTTTTTTCTTTTT [CACACA_site6150]”, the figure is 9.44 ± 0.33; as for CTTATAATATTACGGGTGCTATAAATACATTATATT, 10.2 ± 0.19; as for “TAAATCAAAAACAACAAGTCATATTAAAGATGGTAT [CACACA_negctrl_site1321]”, 9.98 ± 0.028.
As for “TTGTTTCAAAATTAAACACACACAAAAAAAAAAAAA [CACACA_site8856]”, the figure is 9.91 ± 0.42.
For “TATTCCTAATTTAAAAGTACATATATATATATATAT [XGTACX_site3008]” the value was 11.3 ± 0.79.
Consider “GGATATATAAGATACACACACAAATTAAATATAAAA [CACACA_site7333]”, for which the “gcPBM binding intensity (ln)” value is 10.1 ± 0.13.
For “TAATATATAAATATATGTACATAATTAATAGGATAT [XGTACX_site237]” the value was 11.2 ± 0.73; for “TAATTAAAATTATATATTAGAAAAAACATATAAAAC [CACACA_negctrl_site190]”, 10 ± 0.31.
